Reference: PubChem BioAssay AID1030 (National Center for Advancing Translational Sciences (NCATS), 2008)
About 16,000 (7.3%) of roughly 220,000 compounds were called active. Inconclusive results, whose numbers are uncertain, are shown with a selection of clear calls. Calls follow the shape of the dose curve; as a rule, active = well fitted inhibition curve with a large enough effect (not every such curve was filed as active); inconclusive = small, poorly fitted or top-dose-only effect, or another doubt; inactive = no such curve, though single readings can be large or run the other way. No potency is given beside an inconclusive call; the fits are too rough.

Biological target: Aldehyde dehydrogenase 1A1 (Homo sapiens) (UniProt P00352)
UniProt P00352, sequence (P00352 whole entry, looked up): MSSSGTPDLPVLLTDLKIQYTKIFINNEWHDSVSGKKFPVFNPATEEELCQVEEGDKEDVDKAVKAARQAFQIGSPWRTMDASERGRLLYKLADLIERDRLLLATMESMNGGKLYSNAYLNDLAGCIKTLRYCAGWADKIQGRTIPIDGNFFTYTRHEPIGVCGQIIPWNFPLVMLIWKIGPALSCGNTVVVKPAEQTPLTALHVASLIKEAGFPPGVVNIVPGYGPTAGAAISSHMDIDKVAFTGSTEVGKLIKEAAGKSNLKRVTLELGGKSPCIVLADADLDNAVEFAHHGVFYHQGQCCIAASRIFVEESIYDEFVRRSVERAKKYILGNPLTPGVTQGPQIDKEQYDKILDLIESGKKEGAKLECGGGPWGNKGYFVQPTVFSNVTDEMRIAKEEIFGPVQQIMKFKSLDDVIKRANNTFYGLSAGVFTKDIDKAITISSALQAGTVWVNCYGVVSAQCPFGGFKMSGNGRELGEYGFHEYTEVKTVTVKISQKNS
Assay: qHTS Assay for Inhibitors of Aldehyde Dehydrogenase 1 (ALDH1A1)
Conditions: Purified ALDH1A1, NADH fluorescence, propionaldehyde substrate; series mostly up to 75.3 µM
Potency is read from the fitted curve at half-maximal effect; tags tell the direction and shape of the fitted curve.

Row | SMILES | Potency
1 | CC(C)(C)C1CCc2c(sc(NC(=O)c3ccco3)c2C(N)=O)C1 (stereo not given) | inconclusive [inhibitor, partial curve]
2 | NC(=O)c1ccc(NC(=O)CN2CCN(c3ccc(Cl)cc3)CC2)cc1 | active: 22.4 µM
3 | Cc1cc(/C=C2\C(=N)N3N=C(c4ccco4)SC3=NC2=O)c(C)n1Cc1ccccc1 | inconclusive [inhibitor, single point]
4 | Cc1c(C(=O)NCc2cccs2)oc2ccccc12 | inactive
5 | COc1cc2c(cc1OC)C(c1ccc(-c3cc(Cl)ccc3Cl)o1)=NCC2 | inconclusive [inhibitor, partial curve]
6 | CCn1nc(NC(=O)c2ccncc2)c2cc3ccc(C)cc3nc21 | inconclusive [inhibitor, single point]
7 | COc1ccc(-c2nc(-c3ccccc3)ncc2S(C)(=O)=O)cc1 | inactive
8 | Cc1oc(C(=O)O)cc1COc1ccc2c(C)cc(=O)oc2c1 | inconclusive [inhibitor, partial curve]
9 | Cn1c(-c2ccc3c(c2)OCO3)cnc1NCc1ccccc1 | inconclusive [inhibitor, partial curve, poor fit]
10 | CCn1c(=O)c(-c2nc3ccccc3[nH]2)c(O)c2ccccc21 | inconclusive [inhibitor, full curve]
11 | CCN(CC)Cc1cc(C(C)=O)ccc1OCC(C)C | active: 1.12 µM
12 | O=C(NCc1cccnc1)c1ccc(COc2cccc3ccccc23)o1 | inconclusive [inhibitor, single point]
13 | Cc1nc2c(c3c1[nH]c1ccccc13)C(O)CC(C)(C)C2 (stereo not given) | inconclusive [inhibitor, partial curve]
14 | CCC1(C)Cc2c(sc3nnn(Cc4ccccc4Cl)c(=O)c23)CO1 (stereo not given) | inactive
15 | COc1ccc(OC)c(-c2nnc(-c3ccc(C)o3)o2)c1 | inconclusive [inhibitor, partial curve]
16 | CCN(CC)C(=O)Cn1c(=O)c2ccccc2n2c(=S)sc(-c3cccc(C)c3)c12 | inconclusive [inhibitor, single point]
17 | O=C(CSc1nnc(CNc2ccc(F)cc2)o1)c1ccccc1 | inactive
18 | COC(=O)/C=C\C(=O)Nc1cccc([N+](=O)[O-])c1 | active: 0.178 µM
19 | S=C(Nc1ccccc1)N1N=C(c2cccs2)CC1c1cccs1 (stereo not given) | inconclusive [inhibitor, partial curve]
20 | Cc1cc(C)cc(NC(=O)CSc2ccc(-c3ccco3)nn2)c1 | active: 7.08 µM
